# According to the supplement of paper PMC8728848:
# This is one part of the list.
# B1: RBMC2 (Vibrio cholerae) (protein)
# chain: KISVRSGFAIDAIGASASTLVGGTGGNLNAAVNVKDIKAIDLTWGKYYWGGYHLLALDFRMSNGSVISMGSKNYAYSKQTERFTVPAGSRIKGIKAWTAGWLLDGVQFELA
# How the values were obtained:
# Assay in all cases: glycan array binding signal (z-score within array); higher = stronger binding
# Settings in all cases: glycan notation: IUPAC condensed, linker removed
# [1] = biological target: GlcNAc(b1-2)Gal(b1-3)GalNAc
# Outline: (§1)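 Glycan array data came from 3228 arrays in the Consortium for Functional Glycomics database, and only arrays with an available protein sequence were kept. Glycan names were put into IUPAC-condensed notation, and columns mapping to the same glycan were averaged. The binding signal is a within-array Z-score, averaged across arrays of one protein sequence run at different concentrations or buffers and across linkers. A negative Z-score can be read as non-binding.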
# [2] = biological target: GlcNAc(b1-2)Man(a1-3)[GlcNAc(b1-2)Man(a1-6)]Man(b1-4)GlcNAc(b1-4)GlcNAc
# Outline: as §1
# [3] = biological target: GlcNAc(b1-2)Man(a1-3)[GlcNAc(b1-2)Man(a1-6)]Man(b1-4)GlcNAc(b1-4)[Fuc(a1-6)]GlcNAc
# Outline: as §1
# [4] = biological target: GlcNAc(b1-2)Man(a1-3)[GlcNAc(b1-4)][GlcNAc(b1-2)Man(a1-6)]Man(b1-4)GlcNAc(b1-4)GlcNAc
# Outline: as §1
# [5] = biological target: GlcNAc(b1-2)Man(a1-3)[GlcNAc(b1-4)][GlcNAc(b1-2)Man(a1-6)]Man(b1-4)GlcNAc(b1-4)[Fuc(a1-6)]GlcNAc
# Outline: as §1
# [6] = biological target: GlcNAc(b1-2)[GlcNAc(b1-4)]Man(a1-3)[GlcNAc(b1-2)Man(a1-6)]Man(b1-4)GlcNAc(b1-4)GlcNAc
# Outline: as §1
# [7] = biological target: GlcNAc(b1-2)[GlcNAc(b1-4)]Man(a1-3)[GlcNAc(b1-4)][GlcNAc(b1-2)Man(a1-6)]Man(b1-4)GlcNAc(b1-4)GlcNAc
# Outline: as §1
# [8] = biological target: GlcNAc(b1-2)[GlcNAc(b1-4)]Man(a1-3)[GlcNAc(b1-4)][GlcNAc(b1-2)[GlcNAc(b1-6)]Man(a1-6)]Man(b1-4)GlcNAc(b1-4)GlcNAc
# Outline: as §1
# [9] = biological target: GlcNAc(b1-2)[GlcNAc(b1-4)]Man(a1-3)[GlcNAc(b1-4)][GlcNAc(b1-2)[GlcNAc(b1-6)]Man(a1-6)]Man(b1-4)GlcNAc(b1-4)[Fuc(a1-6)]GlcNAc
# Outline: as §1
# [10] = biological target: GlcNAc(b1-2)[GlcNAc(b1-6)]Man(a1-6)[GlcNAc(b1-2)Man(a1-3)]Man(b1-4)GlcNAc(b1-4)GlcNAc
# Outline: as §1
# [11] = biological target: GlcNAc(b1-2)[GlcNAc(b1-6)]Man(a1-6)[GlcNAc(b1-2)Man(a1-3)]Man(b1-4)GlcNAc(b1-4)[Fuc(a1-6)]GlcNAc
# Outline: as §1
# [12] = biological target: GlcNAc(b1-2)[GlcNAc(b1-6)]Man(a1-6)[GlcNAc(b1-4)][GlcNAc(b1-2)Man(a1-3)]Man(b1-4)GlcNAc(b1-4)GlcNAc
# Outline: as §1
# [13] = biological target: GlcNAc(b1-3)Fuc
# Outline: as §1
# [14] = biological target: GlcNAc(b1-3)Gal
# Outline: as §1
# [15] = biological target: GlcNAc(b1-3)Gal(b1-3)GalNAc
# Outline: as §1
# [16] = biological target: GlcNAc(b1-3)Gal(b1-4)Glc
# Outline: as §1
# [17] = biological target: GlcNAc(b1-3)Gal(b1-4)GlcNAc
# Outline: as §1
# [18] = biological target: GlcNAc(b1-3)Gal(b1-4)GlcNAc(b1-2)Man(a1-3)[GlcNAc(b1-3)Gal(b1-4)GlcNAc(b1-2)Man(a1-6)]Man(b1-4)GlcNAc(b1-4)GlcNAc
# Outline: as §1
# [19] = biological target: GlcNAc(b1-3)Gal(b1-4)GlcNAc(b1-2)Man(a1-3)[GlcNAc(b1-3)Gal(b1-4)GlcNAc(b1-2)Man(a1-6)]Man(b1-4)GlcNAc(b1-4)[Fuc(a1-6)]GlcNAc
# Outline: as §1
# [20] = biological target: GlcNAc(b1-3)Gal(b1-4)GlcNAc(b1-2)[GlcNAc(b1-3)Gal(b1-4)GlcNAc(b1-6)]Man(a1-6)[GlcNAc(b1-3)Gal(b1-4)GlcNAc(b1-2)Man(a1-3)]Man(b1-4)GlcNAc(b1-4)GlcNAc
# Outline: as §1
# [21] = biological target: GlcNAc(b1-3)Gal(b1-4)GlcNAc(b1-3)Gal(b1-4)GlcNAc
# Outline: as §1
# [22] = biological target: GlcNAc(b1-3)Gal(b1-4)GlcNAc(b1-3)Gal(b1-4)GlcNAc(b1-2)Man(a1-3)[GlcNAc(b1-3)Gal(b1-4)GlcNAc(b1-3)Gal(b1-4)GlcNAc(b1-2)Man(a1-6)]Man(b1-4)GlcNAc(b1-4)GlcNAc
# Outline: as §1
# [23] = biological target: GlcNAc(b1-3)Gal(b1-4)GlcNAc(b1-3)Gal(b1-4)GlcNAc(b1-2)Man(a1-3)[GlcNAc(b1-3)Gal(b1-4)GlcNAc(b1-3)Gal(b1-4)GlcNAc(b1-2)Man(a1-6)]Man(b1-4)GlcNAc(b1-4)[Fuc(a1-6)]GlcNAc
# Outline: as §1
# [24] = biological target: GlcNAc(b1-3)Gal(b1-4)GlcNAc(b1-3)Gal(b1-4)GlcNAc(b1-2)[GlcNAc(b1-3)Gal(b1-4)GlcNAc(b1-3)Gal(b1-4)GlcNAc(b1-6)]Man(a1-6)[GlcNAc(b1-3)Gal(b1-4)GlcNAc(b1-3)Gal(b1-4)GlcNAc(b1-2)Man(a1-3)]Man(b1-4)GlcNAc(b1-4)[Fuc(a1-6)]GlcNAc
# Outline: as §1
# [25] = biological target: GlcNAc(b1-3)Gal(b1-4)GlcNAc(b1-3)Gal(b1-4)GlcNAc(b1-3)Gal(b1-4)GlcNAc(b1-2)Man(a1-3)[GlcNAc(b1-3)Gal(b1-4)GlcNAc(b1-3)Gal(b1-4)GlcNAc(b1-3)Gal(b1-4)GlcNAc(b1-2)Man(a1-6)]Man(b1-4)GlcNAc(b1-4)GlcNAc
# Outline: as §1
# [26] = biological target: GlcNAc(b1-3)Gal(b1-4)GlcNAc(b1-3)Gal(b1-4)GlcNAc(b1-3)Gal(b1-4)GlcNAc(b1-2)Man(a1-3)[GlcNAc(b1-3)Gal(b1-4)GlcNAc(b1-3)Gal(b1-4)GlcNAc(b1-3)Gal(b1-4)GlcNAc(b1-2)Man(a1-6)]Man(b1-4)GlcNAc(b1-4)[Fuc(a1-6)]GlcNAc
# Outline: as §1
# [27] = biological target: GlcNAc(b1-3)Gal(b1-4)GlcNAc(b1-3)Gal(b1-4)GlcNAc(b1-3)Gal(b1-4)GlcNAc(b1-2)[GlcNAc(b1-3)Gal(b1-4)GlcNAc(b1-3)Gal(b1-4)GlcNAc(b1-3)Gal(b1-4)GlcNAc(b1-6)]Man(a1-6)[GlcNAc(b1-3)Gal(b1-4)GlcNAc(b1-3)Gal(b1-4)GlcNAc(b1-3)Gal(b1-4)GlcNAc(b1-2)Man(a1-3)]Man(b1-4)GlcNAc(b1-4)[Fuc(a1-6)]GlcNAc
# Outline: as §1
# [28] = biological target: GlcNAc(b1-3)Gal(b1-4)GlcNAc(b1-3)Gal(b1-4)GlcNAc(b1-3)Gal(b1-4)GlcNAc(b1-3)Gal(b1-4)GlcNAc(b1-2)Man(a1-3)[GlcNAc(b1-3)Gal(b1-4)GlcNAc(b1-3)Gal(b1-4)GlcNAc(b1-3)Gal(b1-4)GlcNAc(b1-3)Gal(b1-4)GlcNAc(b1-2)Man(a1-6)]Man(b1-4)GlcNAc(b1-4)GlcNAc
# Outline: as §1
# [29] = biological target: GlcNAc(b1-3)Gal(b1-4)GlcNAc(b1-3)Gal(b1-4)GlcNAc(b1-3)Gal(b1-4)GlcNAc(b1-3)Gal(b1-4)GlcNAc(b1-2)Man(a1-3)[GlcNAc(b1-3)Gal(b1-4)GlcNAc(b1-3)Gal(b1-4)GlcNAc(b1-3)Gal(b1-4)GlcNAc(b1-3)Gal(b1-4)GlcNAc(b1-2)Man(a1-6)]Man(b1-4)GlcNAc(b1-4)[Fuc(a1-6)]GlcNAc
# Outline: as §1
# [30] = biological target: GlcNAc(b1-3)Gal(b1-4)GlcNAc(b1-3)Gal(b1-4)GlcNAc(b1-3)Gal(b1-4)GlcNAc(b1-3)Gal(b1-4)GlcNAc(b1-2)[GlcNAc(b1-3)Gal(b1-4)GlcNAc(b1-3)Gal(b1-4)GlcNAc(b1-3)Gal(b1-4)GlcNAc(b1-3)Gal(b1-4)GlcNAc(b1-6)]Man(a1-6)[GlcNAc(b1-3)Gal(b1-4)GlcNAc(b1-3)Gal(b1-4)GlcNAc(b1-3)Gal(b1-4)GlcNAc(b1-3)Gal(b1-4)GlcNAc(b1-2)Man(a1-3)]Man(b1-4)GlcNAc(b1-4)[Fuc(a1-6)]GlcNAc
# Outline: as §1
# [31] = biological target: GlcNAc(b1-3)Gal(b1-4)GlcNAc(b1-3)Gal(b1-4)GlcNAc(b1-3)GalNAc
# Outline: as §1
# [32] = biological target: GlcNAc(b1-3)Gal(b1-4)GlcNAc(b1-3)GalNAc
# Outline: as §1
# [33] = biological target: GlcNAc(b1-3)Gal(b1-4)GlcNAc(b1-3)[GlcNAc(b1-3)Gal(b1-4)GlcNAc(b1-3)]GalNAc
# Outline: as §1
# [34] = biological target: GlcNAc(b1-3)Gal(b1-4)GlcNAc(b1-6)[Gal(b1-3)]GalNAc
# Outline: as §1
# [35] = biological target: GlcNAc(b1-3)Gal(b1-4)GlcNAc(b1-6)[GlcNAc(b1-3)Gal(b1-3)]GalNAc
# Outline: as §1
# [36] = biological target: GlcNAc(b1-3)Gal(b1-4)GlcNAc(b1-6)[GlcNAc(b1-3)]Gal(b1-4)GlcNAc
# Outline: as §1
# [37] = biological target: GlcNAc(b1-3)GalNAc
# Outline: as §1
# [38] = biological target: GlcNAc(b1-3)Man
# Outline: as §1
# [39] = biological target: GlcNAc(b1-3)[GlcNAc(b1-4)][GlcNAc(b1-6)]GlcNAc
# Outline: as §1
# [40] = biological target: GlcNAc(b1-3)[GlcNAc(b1-6)]Gal(b1-4)GlcNAc
# Outline: as §1
# [41] = biological target: GlcNAc(b1-3)[GlcNAc(b1-6)]GalNAc
# Outline: as §1
# [42] = biological target: GlcNAc(b1-4)Gal(b1-4)GlcNAc
# Outline: as §1
# [43] = biological target: GlcNAc(b1-4)GlcNAc
# Outline: as §1
# [44] = biological target: GlcNAc(b1-4)GlcNAc(b1-4)GlcNAc
# Outline: as §1
# [45] = biological target: GlcNAc(b1-4)GlcNAc(b1-4)GlcNAc(b1-4)GlcNAc(b1-4)GlcNAc
# Outline: as §1
binder,measurement,setting,value
B1,glycan array binding signal (z-score),[1],-0.328
same,glycan array binding signal (z-score),[2],3.67
same,glycan array binding signal (z-score),[3],0.835
same,glycan array binding signal (z-score),[4],-0.353
same,glycan array binding signal (z-score),[5],-0.322
same,glycan array binding signal (z-score),[6],1.99
same,glycan array binding signal (z-score),[7],-0.138
same,glycan array binding signal (z-score),[8],-0.378
same,glycan array binding signal (z-score),[9],-0.127
same,glycan array binding signal (z-score),[10],-0.232
same,glycan array binding signal (z-score),[11],-0.178
same,glycan array binding signal (z-score),[12],-0.289
same,glycan array binding signal (z-score),[13],-0.299
same,glycan array binding signal (z-score),[14],-0.338
same,glycan array binding signal (z-score),[15],-0.253
same,glycan array binding signal (z-score),[16],-0.327
same,glycan array binding signal (z-score),[17],-0.324
same,glycan array binding signal (z-score),[18],2.85
same,glycan array binding signal (z-score),[19],3.51
same,glycan array binding signal (z-score),[20],-0.184
same,glycan array binding signal (z-score),[21],-0.208
same,glycan array binding signal (z-score),[22],0.639
same,glycan array binding signal (z-score),[23],2.85
same,glycan array binding signal (z-score),[24],-0.276
same,glycan array binding signal (z-score),[25],1.99
same,glycan array binding signal (z-score),[26],2.1
same,glycan array binding signal (z-score),[27],-0.196
same,glycan array binding signal (z-score),[28],2.08
same,glycan array binding signal (z-score),[29],1.92
same,glycan array binding signal (z-score),[30],-0.19
same,glycan array binding signal (z-score),[31],-0.359
same,glycan array binding signal (z-score),[32],-0.427
same,glycan array binding signal (z-score),[33],-0.222
same,glycan array binding signal (z-score),[34],-0.394
same,glycan array binding signal (z-score),[35],-0.195
same,glycan array binding signal (z-score),[36],-0.316
same,glycan array binding signal (z-score),[37],-0.428
same,glycan array binding signal (z-score),[38],-0.042
same,glycan array binding signal (z-score),[39],-0.374
same,glycan array binding signal (z-score),[40],-0.411
same,glycan array binding signal (z-score),[41],-0.401
same,glycan array binding signal (z-score),[42],-0.361
same,glycan array binding signal (z-score),[43],0.231
same,glycan array binding signal (z-score),[44],-0.445
same,glycan array binding signal (z-score),[45],-0.372
